Our source for the cytotoxic effect values is patent US8563706B2, “Efficient cell culture system for hepatitis C virus genotype 1A and 1B” (priority 2007, dated 2013).

This series has as its system Huh7.5 cells.

On to `NC12CC3CC(CC(C3)C1)C2` [amantadine], for which the cytotoxic effect result is “no significant cytotoxic effect”.
On to `NC(=O)c1ncn([C@@H]2O[C@H](CO)[C@@H](O)[C@H]2O)n1` [ribavirin], for which the cytotoxic effect result was “no significant cytotoxic effect”.
